Test results taken from PMC9911399, “Two distinct binding modes provide the RNA-binding protein RbFox with extraordinary sequence specificity”.
Positions count from the first letter of the chain named. This is one part of the list.

T1: RBFOX1 RRM (Homo sapiens, UniProt Q9NWB1 109-208)
T1 sequence: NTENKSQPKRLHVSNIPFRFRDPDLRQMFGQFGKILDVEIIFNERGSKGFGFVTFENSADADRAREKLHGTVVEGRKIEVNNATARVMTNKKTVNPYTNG

B1: AAGGAAG (DNA:RNA)
RNA: GGGAGACCGGAAUUCAGAUUGUCCAAGGAAGUUAAAUCCCGUCGUAGCCACCA
DNA 1: CAATCTGAATTCCGGTCTCCC
DNA 2: TGGTGGCTACGACGGGATT
B2: CUAAGUC (DNA:RNA)
RNA: GGGAGACCGGAAUUCAGAUUGUCCCUAAGUCUUAAAUCCCGUCGUAGCCACCA
DNA 1: CAATCTGAATTCCGGTCTCCC
DNA 2: TGGTGGCTACGACGGGATT
B3: ACCGCUC (DNA:RNA)
RNA: B1 RNA with A26C, G27C, A29C, A30U, G31C
DNA 1: CAATCTGAATTCCGGTCTCCC
DNA 2: TGGTGGCTACGACGGGATT
B4: ACUUUUU (DNA:RNA)
RNA: B1 RNA with A26C, G27U, G28U, A29U, A30U, G31U
DNA 1: CAATCTGAATTCCGGTCTCCC
DNA 2: TGGTGGCTACGACGGGATT
B5: GACCUAU (DNA:RNA)
RNA: B1 RNA with A25G, G27C, G28C, A29U, G31U
DNA 1: CAATCTGAATTCCGGTCTCCC
DNA 2: TGGTGGCTACGACGGGATT
B6: UUAUAAC (DNA:RNA)
RNA: B2 RNA with C25U, A28U, G29A, U30A
DNA 1: CAATCTGAATTCCGGTCTCCC
DNA 2: TGGTGGCTACGACGGGATT
B7: CAGACCU (DNA:RNA)
RNA: B1 RNA with A25C, G28A, A29C, A30C, G31U
DNA 1: CAATCTGAATTCCGGTCTCCC
DNA 2: TGGTGGCTACGACGGGATT
B8: UUGACAA (DNA:RNA)
RNA: B1 RNA with A25U, A26U, G28A, A29C, G31A
DNA 1: CAATCTGAATTCCGGTCTCCC
DNA 2: TGGTGGCTACGACGGGATT
B9: GGCGAAC (DNA:RNA)
RNA: B1 RNA with A25G, A26G, G27C, G31C
DNA 1: CAATCTGAATTCCGGTCTCCC
DNA 2: TGGTGGCTACGACGGGATT
B10: CAUGGUU (DNA:RNA)
RNA: B2 RNA with U26A, A27U, A28G, C31U
DNA 1: CAATCTGAATTCCGGTCTCCC
DNA 2: TGGTGGCTACGACGGGATT
B11: ACACCGC (DNA:RNA)
RNA: B2 RNA with C25A, U26C, A28C, G29C, U30G
DNA 1: CAATCTGAATTCCGGTCTCCC
DNA 2: TGGTGGCTACGACGGGATT
B12: AGUAAGU (DNA:RNA)
RNA: B1 RNA with A26G, G27U, G28A, A30G, G31U
DNA 1: CAATCTGAATTCCGGTCTCCC
DNA 2: TGGTGGCTACGACGGGATT
B13: AAUUGAA (DNA:RNA)
RNA: B1 RNA with G27U, G28U, A29G, G31A
DNA 1: CAATCTGAATTCCGGTCTCCC
DNA 2: TGGTGGCTACGACGGGATT
B14: GAGACAC (DNA:RNA)
RNA: B1 RNA with A25G, G28A, A29C, G31C
DNA 1: CAATCTGAATTCCGGTCTCCC
DNA 2: TGGTGGCTACGACGGGATT
B15: GCCAUCG (DNA:RNA)
RNA: B1 RNA with A25G, A26C, G27C, G28A, A29U, A30C
DNA 1: CAATCTGAATTCCGGTCTCCC
DNA 2: TGGTGGCTACGACGGGATT
B16: UUUAAAA (DNA:RNA)
RNA: B1 RNA with A25U, A26U, G27U, G28A, G31A
DNA 1: CAATCTGAATTCCGGTCTCCC
DNA 2: TGGTGGCTACGACGGGATT
B17: GAACUAC (DNA:RNA)
RNA: B1 RNA with A25G, G27A, G28C, A29U, G31C
DNA 1: CAATCTGAATTCCGGTCTCCC
DNA 2: TGGTGGCTACGACGGGATT
B18: GAUGACC (DNA:RNA)
RNA: B1 RNA with A25G, G27U, A30C, G31C
DNA 1: CAATCTGAATTCCGGTCTCCC
DNA 2: TGGTGGCTACGACGGGATT
B19: GGUAAGU (DNA:RNA)
RNA: B1 RNA with A25G, A26G, G27U, G28A, A30G, G31U
DNA 1: CAATCTGAATTCCGGTCTCCC
DNA 2: TGGTGGCTACGACGGGATT
B20: AGGGGUC (DNA:RNA)
RNA: B1 RNA with A26G, A29G, A30U, G31C
DNA 1: CAATCTGAATTCCGGTCTCCC
DNA 2: TGGTGGCTACGACGGGATT
B21: AAUUAUA (DNA:RNA)
RNA: B1 RNA with G27U, G28U, A30U, G31A
DNA 1: CAATCTGAATTCCGGTCTCCC
DNA 2: TGGTGGCTACGACGGGATT
B22: GCUAAUA (DNA:RNA)
RNA: B2 RNA with C25G, U26C, A27U, G29A, C31A
DNA 1: CAATCTGAATTCCGGTCTCCC
DNA 2: TGGTGGCTACGACGGGATT
B23: CAUUUUC (DNA:RNA)
RNA: B2 RNA with U26A, A27U, A28U, G29U
DNA 1: CAATCTGAATTCCGGTCTCCC
DNA 2: TGGTGGCTACGACGGGATT
B24: GGGGUAU (DNA:RNA)
RNA: B1 RNA with A25G, A26G, A29U, G31U
DNA 1: CAATCTGAATTCCGGTCTCCC
DNA 2: TGGTGGCTACGACGGGATT
B25: CAUGGAA (DNA:RNA)
RNA: B1 RNA with A25C, G27U, A29G, G31A
DNA 1: CAATCTGAATTCCGGTCTCCC
DNA 2: TGGTGGCTACGACGGGATT
B26: CACAUGG (DNA:RNA)
RNA: B1 RNA with A25C, G27C, G28A, A29U, A30G
DNA 1: CAATCTGAATTCCGGTCTCCC
DNA 2: TGGTGGCTACGACGGGATT
B27: AAACCCG (DNA:RNA)
RNA: B1 RNA with G27A, G28C, A29C, A30C
DNA 1: CAATCTGAATTCCGGTCTCCC
DNA 2: TGGTGGCTACGACGGGATT
B28: ACGGUGC (DNA:RNA)
RNA: B1 RNA with A26C, A29U, A30G, G31C
DNA 1: CAATCTGAATTCCGGTCTCCC
DNA 2: TGGTGGCTACGACGGGATT
B29: GUUCACG (DNA:RNA)
RNA: B1 RNA with A25G, A26U, G27U, G28C, A30C
DNA 1: CAATCTGAATTCCGGTCTCCC
DNA 2: TGGTGGCTACGACGGGATT
B30: GCGACUG (DNA:RNA)
RNA: B1 RNA with A25G, A26C, G28A, A29C, A30U
DNA 1: CAATCTGAATTCCGGTCTCCC
DNA 2: TGGTGGCTACGACGGGATT
B31: CUUCCAU (DNA:RNA)
RNA: B2 RNA with A27U, A28C, G29C, U30A, C31U
DNA 1: CAATCTGAATTCCGGTCTCCC
DNA 2: TGGTGGCTACGACGGGATT

Biological target: T1, RBFOX1 RRM
Experiment: EMSA; HiTS-Eq, 1 nM pool, 10 min; buffer printed only for the single-RNA assays: 10 mM Tris pH 7.5, 150 mM NaCl, 3.4 mM EDTA, 0.001% NP-40, 30 C
Conditions: tags: His6 N-terminal (pET28a); label: 5' 32P
Outline: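 Purified RbFox RRM (wild type or mutant) was equilibrated for 10 min in 50 µL with 1 nM of a 5′-radiolabelled pool of RNA with 7 randomized nucleotides, its flanks annealed to DNA oligonucleotides, across increasing protein concentrations. Free RNA was separated by 8% native PAGE, excised, reverse-transcribed, PCR-barcoded and sequenced on an Illumina HiSeq 2500. Relative association constants came from read-count changes of each variant against the control reaction, normalised to the cognate motif.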

Binder	binding signal
B1	0.00984 KA relative to UGCAUGU
B2	0.00496 KA relative to UGCAUGU
B3	0.00293 KA relative to UGCAUGU
B4	0.00519 KA relative to UGCAUGU
B5	0.0038 KA relative to UGCAUGU
B6	0.00364 KA relative to UGCAUGU
B7	0.00272 KA relative to UGCAUGU
B8	0.00852 KA relative to UGCAUGU
B9	0.0211 KA relative to UGCAUGU
B10	0.0143 KA relative to UGCAUGU
B11	0.000714 KA relative to UGCAUGU
B12	0.00858 KA relative to UGCAUGU
B13	0.0108 KA relative to UGCAUGU
B14	0.00951 KA relative to UGCAUGU
B15	0.0111 KA relative to UGCAUGU
B16	0.00108 KA relative to UGCAUGU

Binder	binding signal
B17	0.00432 KA relative to UGCAUGU
B18	0.00916 KA relative to UGCAUGU
B19	0.00762 KA relative to UGCAUGU
B20	0.0243 KA relative to UGCAUGU
B21	0.00219 KA relative to UGCAUGU
B22	0.00169 KA relative to UGCAUGU
B23	0.00705 KA relative to UGCAUGU
B24	0.0265 KA relative to UGCAUGU
B25	0.00993 KA relative to UGCAUGU
B26	0.00862 KA relative to UGCAUGU
B27	0.000686 KA relative to UGCAUGU
B28	0.0168 KA relative to UGCAUGU
B29	0.0115 KA relative to UGCAUGU
B30	0.0216 KA relative to UGCAUGU
B31	0.00161 KA relative to UGCAUGU
